Measurements: publication PMC4336329 (PLoS ONE, 2015)
In all, about 310,000 compounds went through this assay and about 14,000 (4.5%) showed an effect of 50% or more. The effect is printed as a negative number. The list shows a part of the results.

molecular target: human ether-à-go-go-related gene (hERG) potassium channel (human, UniProt Q12809); assay: primary screen, population patch clamp on CHO cells stably expressing hERG
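Also: peak tail current of the secondary pulse compared with the same well before compound.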

Sequence of human ether-à-go-go-related gene (hERG) potassium channel (Q12809 whole entry, looked up): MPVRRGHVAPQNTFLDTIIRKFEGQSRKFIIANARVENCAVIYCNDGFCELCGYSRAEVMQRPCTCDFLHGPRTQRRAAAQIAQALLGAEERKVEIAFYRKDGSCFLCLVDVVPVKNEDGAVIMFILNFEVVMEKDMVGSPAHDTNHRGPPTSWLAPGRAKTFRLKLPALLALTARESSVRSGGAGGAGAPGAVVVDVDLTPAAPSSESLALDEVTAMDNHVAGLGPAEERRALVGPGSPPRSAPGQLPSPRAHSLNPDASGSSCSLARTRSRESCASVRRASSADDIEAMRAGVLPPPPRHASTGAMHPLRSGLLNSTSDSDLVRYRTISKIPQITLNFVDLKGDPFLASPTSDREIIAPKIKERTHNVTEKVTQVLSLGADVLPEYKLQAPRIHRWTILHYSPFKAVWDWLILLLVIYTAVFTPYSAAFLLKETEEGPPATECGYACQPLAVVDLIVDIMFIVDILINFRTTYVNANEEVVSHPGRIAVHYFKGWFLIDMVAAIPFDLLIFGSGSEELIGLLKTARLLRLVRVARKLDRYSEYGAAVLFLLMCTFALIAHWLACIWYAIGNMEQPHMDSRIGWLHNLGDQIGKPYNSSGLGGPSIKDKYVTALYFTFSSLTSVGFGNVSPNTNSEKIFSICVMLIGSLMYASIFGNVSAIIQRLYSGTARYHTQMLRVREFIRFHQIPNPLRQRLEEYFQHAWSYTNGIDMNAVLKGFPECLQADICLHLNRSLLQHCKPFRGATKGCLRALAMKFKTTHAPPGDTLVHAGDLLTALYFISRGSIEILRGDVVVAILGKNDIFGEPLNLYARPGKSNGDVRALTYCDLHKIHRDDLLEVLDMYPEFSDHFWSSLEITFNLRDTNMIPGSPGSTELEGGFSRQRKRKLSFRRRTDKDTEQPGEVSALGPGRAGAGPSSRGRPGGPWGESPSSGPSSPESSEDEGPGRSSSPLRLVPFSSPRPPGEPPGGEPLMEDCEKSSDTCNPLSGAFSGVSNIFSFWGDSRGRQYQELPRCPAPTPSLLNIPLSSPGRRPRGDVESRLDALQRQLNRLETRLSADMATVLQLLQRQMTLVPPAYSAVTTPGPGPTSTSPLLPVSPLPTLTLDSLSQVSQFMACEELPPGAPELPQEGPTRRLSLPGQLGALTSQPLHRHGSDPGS

Row | SMILES | hERG current change (%, negative = inhibition) at 10uM [%]
1 | O=C(CNC(=O)c1ccc(Cl)cc1)NC(CO)c1ccccc1 (centres unmarked) | 19.6
2 | C[C@@H]1C[C@H]2[C@@H]3CCC4=CC(=O)C=C[C@]4(C)[C@@]3(F)[C@@H](O)C[C@]2(C)[C@H]1C(=O)CO | -7.28
3 | COc1ccccc1N(CC(=O)NCc1cccnc1)S(C)(=O)=O | 0.00228
4 | O=C1OC(c2ccc(O)cc2)(c2ccc(O)cc2)c2ccccc21 | -47.2
5 | O=C(O)COc1ccc(NC(=O)C(c2ccccc2)c2ccccc2)cc1 | 9.04
6 | O=c1[nH]ncc(N/N=C\c2cccnc2)c1Cl | -5.75
7 | COc1ccccc1C(CC(=O)Nc1ccc(Cl)cc1)c1ccc(OC(C)C)cc1 (centres unmarked) | 1.17
8 | CCc1nnc(NS(=O)(=O)c2ccc(NC(=O)c3ccc(Cl)cc3)cc2)s1 | -0.0112
9 | CCOC(=O)N1CCC(N2C(=O)c3ccccc3C2Nc2cc(C)cc(C)c2)CC1 (centres unmarked) | -21.8
10 | O=C(Nc1nc(-c2ccccn2)cs1)c1cccc(S(=O)(=O)N2CCOCC2)c1 | -36.7
11 | Cc1nc2cc(C(F)(F)F)ccc2n1C1CCN(CC(=O)NC(C)(C)C)CC1 | -19.4
12 | Nc1nnc(CCOc2ccc(Cl)cc2)s1 | 4.84
13 | COc1ccc(NC(=O)CNC(=O)c2nn(-c3ccc(OC)cc3OC)c(=O)c3ccccc23)c(OC)c1 | 14.3
14 | O=C(CN1CCN(CC(=O)Nc2ccc(Cl)cc2)CC1)Nc1ccc(F)cc1 | -76.9
15 | Nc1nnc(CC(=O)N/N=C/c2ccc(-c3cccc(C(=O)O)c3)o2)s1 | 16.8
16 | Cc1ccc(NC(=S)NNC(=S)NC2CCCCC2)cc1 | 21
17 | C/C(CC(=O)Nc1cccc(C(F)(F)F)c1)=N\NC(=O)C(=O)NCC(C)C | -14.1
18 | COc1ccc(N2CCN(C(=O)COC(=O)c3cc(S(=O)(=O)N(C)C)ccc3N3CCCC3)CC2)cc1 | -2.52
19 | Cl.Nc1nc(C23CC4CC(CC(C4)C2)C3)cs1 | 6.44
20 | O=C(N/N=C/c1ccc([N+](=O)[O-])o1)c1cn(-c2ccccc2)nc1-c1ccccc1 | 3.46
21 | O=C(Nc1ccccc1)c1ccc[n+](Cc2ccc([N+](=O)[O-])cc2)c1.[Br-] | -4.25
22 | COc1cc(NC(=O)c2ccccc2)c(OC)cc1NC(=O)Cc1ccc(F)cc1 | -5.76

Row | SMILES | hERG current change (%, negative = inhibition) at 10uM [%]
23 | CCS(=O)(=O)C1=NN2C(=N)/C(=C\c3ccc(OCCOc4cccc(OC)c4)c(OC)c3)C(=O)N=C2S1 | 18.4
24 | CCOC(=O)CN1N=C(/C=C/c2ccc(OCC)cc2)CCC1=O | -6.84
25 | COC(=O)[C@H](Cc1ccccc1)NC(=O)NCCc1ccc(F)cc1 | -13.2
26 | O=C(Oc1ccccc1Cl)c1ccc(N2CCOCC2)c([N+](=O)[O-])c1 | -4.98
27 | CS(=O)(=O)Nc1ccc(C(=O)NC2CCCC2)cc1 | 10.1
28 | COc1ccccc1CNC(=O)CC1Sc2ccccc2NC1=O (centres unmarked) | -3.77
29 | COc1ccc(CC(NC(C)=O)C(=O)N2CCN(C(=O)Nc3ccc(Cl)cc3)CC2)cc1OC (centres unmarked) | -33.8
30 | COc1ccc(/C=C/C(=O)OCC(=O)c2ccc3c(c2)NC(=O)CO3)c(OC)c1 | 1.6
31 | C=CCOC(=O)C1=C(C)N=C2SCCC(=O)N2C1/C=C/c1ccccc1OC (centres unmarked) | 0.449
32 | C=CCn1cc(/C=N/N2C(=O)C3C4C=CC(C4)C3C2=O)c2ccccc21 (centres unmarked) | -3.93
33 | O=C(O)c1cc(N2C(=O)C3CC=CCC3C2=O)ccc1NCc1cccnc1 (centres unmarked) | 15
34 | CCN(CC)S(=O)(=O)c1ccc(N=NC2=C(O)CC(C)(C)CC2=O)cc1 | 3.89
35 | CCCCc1ccc(NS(=O)(=O)c2c(C)n(C)c(=O)n(C)c2=O)cc1 | -3.46
36 | O=C(NC1CCCCC1)c1cc2nc3c(c(C(F)(F)F)n2n1)CCCC3 | -25.7
37 | COc1ccccc1C(=O)NC(=O)CSc1nnc(N)s1 | -1.2
38 | CCOC(=O)C1CCN(c2ncnc3c2oc2ccc(Br)cc23)CC1 | -9.99
39 | COc1ccccc1S(=O)(=O)Nc1cc(S(=O)(=O)N2CCCCC2)ccc1N1CCOCC1 | -36
40 | O=c1c2cnn(-c3ccccc3)c2nnn1/N=C/c1cccnc1 | 14.2
41 | O=C(NCc1cccnc1)c1noc2c1CCCC2 | -4.81
42 | CC1CC1c1ccc(/C=C(\C#N)C(=O)Nc2cc(Cl)ccc2Cl)o1 (centres unmarked) | 8.87
43 | CSc1cccc(NC(=O)C2CCCN(S(=O)(=O)c3cccs3)C2)c1 (centres unmarked) | 3.76
44 | O=C(NCc1cccs1)C1CCCN1S(=O)(=O)c1ccccc1F (centres unmarked) | -4.65

Row | SMILES | hERG current change (%, negative = inhibition) at 10uM [%]
45 | Cc1ccc(C)c2[nH]c(=O)c(CCNC(=O)c3ccco3)cc12 | 2.01
46 | Oc1ccccc1C=NC(c1ccccc1)C(O)c1ccccc1 (centres unmarked) | 0.467
47 | CCn1cnc2sc(C(=O)Oc3cccc(C)c3)c(C)c2c1=O | 19.9
48 | Cc1nc(C(F)(F)F)ccc1C(=O)N1CCCCC1 | 13.5
49 | CCOC(=O)c1cnn(-c2nc(-c3ccccc3F)cs2)c1C(F)(F)F | 13.5
50 | Cc1cc(C)nc(-n2nc(C)c(Oc3ccccc3O)c2C)n1 | -6.25
51 | CN(CCCC(=O)NCc1ccc2c(c1)OCO2)S(=O)(=O)c1ccc([N+](=O)[O-])cc1 | -68.1
52 | COc1ccc(S(=O)(=O)N2CCN(Cc3cc(OC)c(OC)c(OC)c3)CC2)cc1.O=C(O)C(=O)O | 15.5
53 | CCSc1nnc(-c2ccc(S(=O)(=O)N3CCOCC3)cc2)n1C | 13.7
54 | I.OCCNC1=NCCN1 | 21.5
55 | Cc1ccccc1-c1nnn(Cc2ccc(F)cc2Cl)n1 | 10.6
56 | O=C(Cn1cc(/C=N/NC(=O)c2ccccc2Br)c2ccccc21)Nc1ccc(F)cc1 | 13.9
57 | Cc1ccc2c(c1)C(O)(CC(=O)/C=C/C=C/c1ccccc1)C(=O)N2 (centres unmarked) | 4.35
58 | O=C(NCc1ccc(Cl)cc1)C1CC(O)CN1S(=O)(=O)c1ccc(Cl)cc1 (centres unmarked) | 3.19
59 | CN(c1cnn(-c2ccccc2)c(=O)c1Cl)n1cccc1 | -9.65
60 | COC(=O)c1cc(Br)ccc1NC(=O)Nc1ccccc1 | -3.67
61 | O=C(Nc1cccc(S(=O)(=O)N2CCCCC2)c1)c1ccc2ccccc2n1 | 2.67
62 | O=C(CCNS(=O)(=O)c1ccc(Br)s1)NC1CCCC1 | -15.1
63 | CCOc1ccc(CNC(=O)C2CCCN(S(=O)(=O)N3CC(C)CC(C)C3)C2)cc1OC (centres unmarked) | 9.47
64 | CCOC(=O)C1=C(C)NC(C)=C(C(=O)OCC)C1C(=O)OCC(=O)c1ccc2c(c1)OCCO2 | -8.72
65 | CCn1cc([N+](=O)[O-])c(C(=O)Nc2c(C)nn(Cc3cccc(F)c3)c2C)n1 | 19.9
66 | CC(=O)OCC(=O)Nc1cc(S(=O)(=O)N2CCCCCC2)ccc1Cl | -2.16

Row | SMILES | hERG current change (%, negative = inhibition) at 10uM [%]
67 | COCCCNC(=S)N1CCN(C(=O)c2ccco2)CC1 | 5.88
68 | Cc1ccc(NC(=O)CCN2CCC(Cc3ccccc3)CC2)cc1 | -75.1
69 | COc1ccc(NC(=O)CN2CCCC(C)C2)c([N+](=O)[O-])c1 (centres unmarked) | -26.5
70 | COc1ccc(CN=Cc2c(O)[nH]c3ccccc23)cc1 | 13
71 | O=C1CC(N2CCN(c3nc4ccccc4s3)CC2)C(=O)N1c1ccc(F)cc1 (centres unmarked) | -53.5
72 | O=C(COC(=O)c1c[nH]c(=O)[nH]c1=O)Nc1ccccc1 | 17.8
73 | CC(C)(C)P(=O)(c1ccncc1)N1CCCC1 (centres unmarked) | 2.14
74 | O=C(c1cc2nc(-c3ccco3)cc(C(F)(F)F)n2n1)N1CCCc2ccccc21 | 14.4
75 | CCC(C(=O)NCCCN1CC(C)CC(C)C1)n1nc(C)c2sc3ccccc3c2c1=O (centres unmarked) | -37
76 | COc1ccc(N2C(=O)C(Cc3ccccc3)NC2=S)cc1 (centres unmarked) | 13.7
77 | CCOC(=O)CN1CC23C=CC(O2)C(C(=O)Nc2ccc(OC)cc2OC)C3C1=O (centres unmarked) | 15.9
78 | Cc1c(NC(=O)/C=C/c2cccs2)c(=O)n(-c2ccccc2)n1C | -1.38
79 | COc1cc(N2C(=O)CC(=O)NC2=O)cc(OC)c1OC | 17.1
80 | CCOC(=O)c1ccc(NC(=O)CSCCC(=O)O)cc1 | 16.4
81 | CCN(CC)CCC(c1ccc(N(C)C)cc1)c1c(O)cc(OC)cc1OC (centres unmarked) | -0.431
82 | O=C(NCc1ccc(F)cc1Cl)C1CCN(S(=O)(=O)N2CCC3(CC2)OCCO3)CC1 | -13.9
83 | O=C(Cc1ccc2c(c1)CCCC2)Nc1ccccc1Br | 8.48
84 | COC(=O)C1(CCSC)NC(c2ccc(O)c(OC)c2)C2C(=O)N(c3ccc(C)cc3)C(=O)C21 (centres unmarked) | 0.388
85 | O=C(CCSCc1ccc(Cl)cc1)NCc1ccco1 | -13.5
86 | CC(C)=CC(=O)O[C@@H]1Cc2cc3ccc(=O)oc3cc2OC1(C)C | -16.5
